From PMC4860839, “Structures of the APC–ARM domain in complexes with discrete Amer1/WTX fragments reveal that it uses a consensus mode to recognize its binding partners” (Cell Discovery, 2015)
Changes are numbered by the printed parent chain. Names and notes keep the numbering of the source. No constants are given. Whether binding was seen depends on the method and setting. Some binding calls cover weakened binding; strength is not graded here.

The chains behind the UniProt entries cited, without tags or fusion partners. Where a name states a change or a piece, a line headed by the entry shows the natural chain unless it says otherwise. A line that says so, or that is headed by a name, gives the form on record, which may keep a tag or linker. Residues count along the entry.
UniProt P25054: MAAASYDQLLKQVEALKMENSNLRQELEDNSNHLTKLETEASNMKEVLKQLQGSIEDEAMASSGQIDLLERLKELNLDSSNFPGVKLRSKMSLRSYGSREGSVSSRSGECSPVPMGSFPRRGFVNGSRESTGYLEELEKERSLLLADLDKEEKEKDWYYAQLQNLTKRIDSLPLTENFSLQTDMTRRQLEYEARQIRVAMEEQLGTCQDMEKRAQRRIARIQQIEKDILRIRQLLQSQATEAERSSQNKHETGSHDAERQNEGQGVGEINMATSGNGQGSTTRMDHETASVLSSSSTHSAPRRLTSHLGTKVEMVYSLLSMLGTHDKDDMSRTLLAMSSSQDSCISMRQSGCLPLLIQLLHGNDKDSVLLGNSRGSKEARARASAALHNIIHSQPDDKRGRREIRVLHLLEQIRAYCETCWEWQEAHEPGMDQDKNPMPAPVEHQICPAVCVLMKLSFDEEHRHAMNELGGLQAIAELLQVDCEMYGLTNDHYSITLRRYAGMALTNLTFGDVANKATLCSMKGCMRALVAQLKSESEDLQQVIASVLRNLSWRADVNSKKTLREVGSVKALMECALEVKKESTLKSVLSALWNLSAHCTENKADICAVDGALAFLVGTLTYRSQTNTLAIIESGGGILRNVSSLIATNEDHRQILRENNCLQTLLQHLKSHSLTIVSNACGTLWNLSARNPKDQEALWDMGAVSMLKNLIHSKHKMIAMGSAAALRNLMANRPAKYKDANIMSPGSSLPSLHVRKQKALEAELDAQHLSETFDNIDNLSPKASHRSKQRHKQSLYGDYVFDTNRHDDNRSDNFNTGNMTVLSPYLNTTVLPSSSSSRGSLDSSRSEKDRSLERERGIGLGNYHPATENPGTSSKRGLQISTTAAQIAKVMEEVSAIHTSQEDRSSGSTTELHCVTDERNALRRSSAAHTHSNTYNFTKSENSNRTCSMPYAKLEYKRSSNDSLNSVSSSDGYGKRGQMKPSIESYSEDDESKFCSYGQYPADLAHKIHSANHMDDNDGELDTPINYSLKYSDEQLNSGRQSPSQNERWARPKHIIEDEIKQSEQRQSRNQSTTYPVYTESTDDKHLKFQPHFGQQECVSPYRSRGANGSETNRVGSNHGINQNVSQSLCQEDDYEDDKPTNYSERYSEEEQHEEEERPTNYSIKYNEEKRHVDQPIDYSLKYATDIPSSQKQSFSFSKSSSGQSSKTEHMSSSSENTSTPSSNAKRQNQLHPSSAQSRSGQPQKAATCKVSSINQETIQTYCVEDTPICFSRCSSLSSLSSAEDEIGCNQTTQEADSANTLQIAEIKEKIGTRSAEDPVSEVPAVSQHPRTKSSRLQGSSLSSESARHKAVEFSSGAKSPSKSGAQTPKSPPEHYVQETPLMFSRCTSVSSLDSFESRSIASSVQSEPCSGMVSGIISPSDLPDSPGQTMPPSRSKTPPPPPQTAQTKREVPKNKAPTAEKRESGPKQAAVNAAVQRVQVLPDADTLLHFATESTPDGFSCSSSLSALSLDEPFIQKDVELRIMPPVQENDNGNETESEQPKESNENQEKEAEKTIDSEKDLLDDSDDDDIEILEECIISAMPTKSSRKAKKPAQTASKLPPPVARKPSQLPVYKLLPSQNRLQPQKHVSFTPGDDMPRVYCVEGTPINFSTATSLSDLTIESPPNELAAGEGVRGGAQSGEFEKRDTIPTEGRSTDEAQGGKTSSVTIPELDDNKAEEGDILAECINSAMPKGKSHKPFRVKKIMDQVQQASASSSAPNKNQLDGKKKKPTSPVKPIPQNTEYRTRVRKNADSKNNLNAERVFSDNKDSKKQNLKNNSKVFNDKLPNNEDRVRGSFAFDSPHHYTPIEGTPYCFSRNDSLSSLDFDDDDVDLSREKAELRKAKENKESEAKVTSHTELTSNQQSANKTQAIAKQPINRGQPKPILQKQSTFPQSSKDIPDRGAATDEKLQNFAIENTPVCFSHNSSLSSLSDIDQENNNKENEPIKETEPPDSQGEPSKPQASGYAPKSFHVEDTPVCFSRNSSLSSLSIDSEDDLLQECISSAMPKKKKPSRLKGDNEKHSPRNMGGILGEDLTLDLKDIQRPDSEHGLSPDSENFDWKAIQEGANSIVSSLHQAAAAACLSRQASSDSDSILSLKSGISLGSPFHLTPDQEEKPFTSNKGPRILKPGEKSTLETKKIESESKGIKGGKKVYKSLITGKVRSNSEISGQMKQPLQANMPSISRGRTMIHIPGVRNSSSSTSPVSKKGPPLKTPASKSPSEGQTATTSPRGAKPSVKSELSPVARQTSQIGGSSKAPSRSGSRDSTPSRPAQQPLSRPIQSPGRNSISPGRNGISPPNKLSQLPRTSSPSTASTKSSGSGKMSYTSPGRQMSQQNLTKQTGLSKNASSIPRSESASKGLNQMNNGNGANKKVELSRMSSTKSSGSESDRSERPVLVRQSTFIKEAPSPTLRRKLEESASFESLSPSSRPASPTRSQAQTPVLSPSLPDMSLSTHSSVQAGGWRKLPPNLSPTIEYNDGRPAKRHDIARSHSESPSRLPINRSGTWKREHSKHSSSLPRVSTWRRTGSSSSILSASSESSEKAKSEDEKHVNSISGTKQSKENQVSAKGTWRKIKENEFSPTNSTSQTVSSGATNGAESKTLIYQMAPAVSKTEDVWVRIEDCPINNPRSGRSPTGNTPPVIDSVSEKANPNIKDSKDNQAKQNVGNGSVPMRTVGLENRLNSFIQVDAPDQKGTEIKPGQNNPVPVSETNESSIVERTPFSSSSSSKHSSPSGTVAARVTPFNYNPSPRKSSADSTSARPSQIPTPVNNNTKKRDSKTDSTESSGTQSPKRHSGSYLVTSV
pBTM-APC–ARM (residues 308–789) K516E (P25054, form named): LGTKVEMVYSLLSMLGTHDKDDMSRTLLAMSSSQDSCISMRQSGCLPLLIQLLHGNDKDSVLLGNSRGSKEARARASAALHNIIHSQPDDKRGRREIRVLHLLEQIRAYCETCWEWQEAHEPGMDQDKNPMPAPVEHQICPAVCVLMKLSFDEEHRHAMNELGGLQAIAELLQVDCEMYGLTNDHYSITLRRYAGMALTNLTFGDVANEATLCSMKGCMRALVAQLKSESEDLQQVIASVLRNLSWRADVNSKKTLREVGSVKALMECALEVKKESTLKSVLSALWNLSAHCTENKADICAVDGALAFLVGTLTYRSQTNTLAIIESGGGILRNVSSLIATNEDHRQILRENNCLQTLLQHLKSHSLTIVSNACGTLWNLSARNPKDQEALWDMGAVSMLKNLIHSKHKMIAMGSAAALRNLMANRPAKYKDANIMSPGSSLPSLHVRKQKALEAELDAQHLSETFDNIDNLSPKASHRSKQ
pBTM-APC–ARM (residues 308–789) R549E (P25054, form named): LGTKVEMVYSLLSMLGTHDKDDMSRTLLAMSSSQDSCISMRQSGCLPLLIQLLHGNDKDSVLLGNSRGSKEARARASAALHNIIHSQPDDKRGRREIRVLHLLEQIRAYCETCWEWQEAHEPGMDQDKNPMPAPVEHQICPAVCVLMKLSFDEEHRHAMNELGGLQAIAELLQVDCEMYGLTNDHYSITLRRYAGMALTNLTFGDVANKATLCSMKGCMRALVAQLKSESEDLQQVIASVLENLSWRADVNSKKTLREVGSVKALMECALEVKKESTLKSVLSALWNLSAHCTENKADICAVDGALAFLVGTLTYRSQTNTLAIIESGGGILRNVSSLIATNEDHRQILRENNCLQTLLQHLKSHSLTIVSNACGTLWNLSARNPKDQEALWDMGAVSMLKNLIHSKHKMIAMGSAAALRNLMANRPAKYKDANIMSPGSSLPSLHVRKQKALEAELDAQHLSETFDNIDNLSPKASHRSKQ

B1: Amer1-A1 (murine, residues 279–367), two-hybrid prey (domain or fragment, UniProt Q7TS75 279-367)
chain: SLEEPHTSETEGKVVAGEVNPPNGPVGDQLSLLFGDVTSLKSFDSLTGCGDIIAEQDMDSMTDSMASGGQRANRDGTKRSSCLVTYQGG
B2: Amer1-A2 (murine, residues 388–551), two-hybrid prey (domain or fragment, UniProt Q7TS75 388-551)
chain: EEEEEEEEEEEEEEEEEEEEEELLEDEEEVKDGEENDDLEYLWASAQIYPRFNMNLGYHTAISPSHQGYMLLDPVQSYPNLGLGELLTPQSDQQESAPNSDEGYYDSTTPGFEDDSGEALGLAHRDCLPRDSYSGDALYEFYEPDDSLEHSPPGDDCLYDLRGR
B3: Amer1-A4 (human, residues 337–455), two-hybrid prey (domain or fragment, UniProt Q5JTC6 337-455)
chain: MDSMTDSMASGGQRANRDGTKRSSCLVTYQGGGEEMALPDDDDEEEEEEEEVELEEEEEEVKEEEEDDDLEYLWETAQMYPRPNMNLGYHPTTSPGHHGYMLLDPVRSYPGLAPGELLT
B4: Amer1-A1 (human, residues 280–369), two-hybrid prey (domain or fragment, UniProt Q5JTC6 280-369)
chain: SLEEPHSPETGEKVVAGEVNPPNGPVGDPLSLLFGDVTSLKSFDSLTGCGDIIAEQDMDSMTDSMASGGQRANRDGTKRSSCLVTYQGGG
B5: GST-Amer1 (380–531), full A2 (domain or fragment, human, UniProt Q5JTC6 380-531, looked up)
chain: EEEEEEEEVELEEEEEEVKEEEEDDDLEYLWETAQMYPRPNMNLGYHPTTSPGHHGYMLLDPVRSYPGLAPGELLTPQSDQQESAPNSDEGYYDSTTPGFEDDSGEALGLVRRDCLPRDSYSGDALYEFYEPDDSLENSPPGDDCLYDLHGR
notes: the methods print full A2: 400–531; also called full Amer1-A2; not shown: GST, N-terminal, kept
B6: hAmer1-A1 (residues 280–369) T326R, two-hybrid prey (domain or fragment, UniProt Q5JTC6 280-369)
chain: B4 chain with T47R
B7: hAmer1-A1 (residues 280–369) T326A, two-hybrid prey (domain or fragment, UniProt Q5JTC6 280-369)
chain: B4 chain with T47A
B8: hAmer1-A1 (residues 280–369) D330K, two-hybrid prey (domain or fragment, UniProt Q5JTC6 280-369)
chain: B4 chain with D51K
B9: hAmer1-A1 (residues 280–369) D330A, two-hybrid prey (domain or fragment, UniProt Q5JTC6 280-369)
chain: B4 chain with D51A
B10: hAmer1-A1 (residues 280–369) I332D, two-hybrid prey (domain or fragment, UniProt Q5JTC6 280-369)
chain: B4 chain with I53D
B11: hAmer1-A4 (residues 337–455) E370K, two-hybrid prey (domain or fragment, UniProt Q5JTC6 337-455)
chain: B3 chain with E34K
B12: hAmer1-A4 (residues 337–455) with residues 370–373 deleted, two-hybrid prey (domain or fragment, UniProt Q5JTC6)
chain: MDSMTDSMASGGQRANRDGTKRSSCLVTYQGGGLPDDDDEEEEEEEEVELEEEEEEVKEEEEDDDLEYLWETAQMYPRPNMNLGYHPTTSPGHHGYMLLDPVRSYPGLAPGELLT

How the values were obtained:
Assay in all cases: two-hybrid; L40 yeast, APC–ARM in pBTM116 (bait), Amer1 sites in pVP16 (prey); β-galactosidase activity and growth on –His; 7 mM (A4) or 10 mM (A1, A2, A3) 3-aminotriazole
[1] = molecular target: pBTM-APC–ARM (residues 308–789) K516E (human) (UniProt P25054)
[2] = molecular target: pBTM-APC–ARM (residues 308–789) R549E (human) (UniProt P25054)
[3] = molecular target: pBTM-APC–ARM (residues 308–789), two-hybrid bait (human) (UniProt P25054)

Binder | binding [1] | binding [2] | binding [3]
B1 | no binding | no binding | binds
B2 | no binding | no binding | binds
B3 | no binding | no binding | binds
B4 |  |  | binds
B5 |  |  | binds
B6 |  |  | no binding
B7 |  |  | no binding
B8 |  |  | no binding
B9 |  |  | no binding
B10 |  |  | no binding
B11 |  |  | no binding
B12 |  |  | no binding
